Experimental data reported in the supplement of paper PMC7826260.
The other results are listed elsewhere or left out. Each Rep nickase domain was tested in vitro on the same pool of single strands (1 h at 37 °C, 3 µM enzyme); the outer parts of the 90-letter strands are left off. A value is the log2 ratio of uncut reads to the pool without enzyme; uncut sequences lie near 0, cut ones below; no hit call is given. Counts are relative to all reads; where an enzyme cuts many sequences, the uncut ones exceed 0.

How the values were obtained:
Test in all cases: uncleaved DNA left, log2 of reads against the no-enzyme library (log2 ratio); higher = less cleavage (more negative = more Rep cleavage of the k-mer); sequences stand for … in CTCGTCCG…ACCGGAGA
[1] = test system: T1, Rep nickase domain of Muscovy duck circovirus
T1 sequence (residues 1-111, tag not shown): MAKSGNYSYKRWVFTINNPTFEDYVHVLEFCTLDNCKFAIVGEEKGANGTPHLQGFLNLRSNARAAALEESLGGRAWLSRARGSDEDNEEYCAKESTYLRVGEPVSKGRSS
Description: (§1)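 A pool of 90-nt single-stranded DNAs with seven random bases just before the constant AC of the nick site (name = the seven bases) was cut by 3 µM recombinant His6-SUMO-tagged Rep nickase domain (300 nM DNA, 50 mM HEPES pH 8.0, 50 mM NaCl, 1 mM MnCl2, 1 h, 37 °C, three replicates). Uncut DNA was amplified and sequenced.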

[2] = test system: T2, Rep nickase domain of banana bunchy top virus
T2 sequence (residues 1-94, tag not shown): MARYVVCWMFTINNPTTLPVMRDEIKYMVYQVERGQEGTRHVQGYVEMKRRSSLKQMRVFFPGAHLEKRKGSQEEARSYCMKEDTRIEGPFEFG
Description: as §1

[3] = test system: T3, Rep nickase domain of cabbage leaf curl virus
T3 sequence (residues 1-116, tag not shown): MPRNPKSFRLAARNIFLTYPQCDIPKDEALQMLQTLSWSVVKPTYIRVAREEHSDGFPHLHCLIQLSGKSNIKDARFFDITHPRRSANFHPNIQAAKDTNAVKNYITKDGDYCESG
Description: as §1

[4] = test system: T4, Rep nickase domain of chickpea chlorotic dwarf virus
T4 sequence (residues 1-124, tag not shown): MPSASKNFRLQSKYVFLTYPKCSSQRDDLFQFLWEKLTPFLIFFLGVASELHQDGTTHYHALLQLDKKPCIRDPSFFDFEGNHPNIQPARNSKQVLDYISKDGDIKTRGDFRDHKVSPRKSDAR
Description: as §1

[5] = test system: T5, Rep nickase domain of faba bean necrotic yellows virus
T5 sequence (residues 1-98, tag not shown): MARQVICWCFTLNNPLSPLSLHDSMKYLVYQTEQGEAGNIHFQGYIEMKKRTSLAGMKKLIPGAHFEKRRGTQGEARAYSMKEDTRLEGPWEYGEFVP
Description: as §1

[6] = test system: T6, Rep nickase domain of maize striate mosaic virus
T6 sequence (residues 1-117, tag not shown): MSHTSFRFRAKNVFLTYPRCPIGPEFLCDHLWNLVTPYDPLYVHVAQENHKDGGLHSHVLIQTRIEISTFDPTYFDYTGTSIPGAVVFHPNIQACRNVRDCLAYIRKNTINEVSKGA
Description: as §1

[7] = test system: T7, Rep nickase domain of porcine circovirus 2
T7 sequence (residues 2-116, tag not shown): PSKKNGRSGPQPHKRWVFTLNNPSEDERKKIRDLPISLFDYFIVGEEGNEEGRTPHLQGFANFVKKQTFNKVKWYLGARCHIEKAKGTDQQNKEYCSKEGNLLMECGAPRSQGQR
Description: as §1

[8] = test system: T8, Rep nickase domain of tomato golden mosaic virus
T8 sequence (residues 1-124, tag not shown): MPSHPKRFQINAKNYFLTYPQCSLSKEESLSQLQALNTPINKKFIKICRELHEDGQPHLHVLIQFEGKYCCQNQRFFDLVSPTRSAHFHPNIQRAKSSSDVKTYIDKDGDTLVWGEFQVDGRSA
Description: as §1

[9] = test system: T9, Rep nickase domain of tomato yellow leaf curl virus
T9 sequence (residues 1-136, tag not shown): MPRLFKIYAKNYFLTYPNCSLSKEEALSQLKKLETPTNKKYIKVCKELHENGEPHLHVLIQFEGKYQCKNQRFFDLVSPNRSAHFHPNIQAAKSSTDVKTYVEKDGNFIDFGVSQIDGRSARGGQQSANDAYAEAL
Description: as §1

[10] = test system: T10, Rep nickase domain of wheat dwarf virus
T10 sequence (residues 1-137, tag not shown): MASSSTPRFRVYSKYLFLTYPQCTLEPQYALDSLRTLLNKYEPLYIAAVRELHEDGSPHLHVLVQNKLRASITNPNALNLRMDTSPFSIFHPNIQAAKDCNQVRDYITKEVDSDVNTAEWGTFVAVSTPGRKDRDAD
Description: as §1

Sequence | uncleaved DNA left (log2) [1] | uncleaved DNA left (log2) [2] | uncleaved DNA left (log2) [3] | uncleaved DNA left (log2) [4] | uncleaved DNA left (log2) [5] | uncleaved DNA left (log2) [6] | uncleaved DNA left (log2) [7] | uncleaved DNA left (log2) [8] | uncleaved DNA left (log2) [9] | uncleaved DNA left (log2) [10]
ACGCGGA | -0.156 | -0.184 | -0.549 | -0.531 | -0.125 | -0.875 | 0.0638 | -0.0976 | -0.097 | -0.173
GGTATTA | 0.0511 | 0.137 | 0.47 | 1.09 | -0.111 | 1.84 | 0.117 | 0.0976 | 0.149 | 0.123
GGTTACC | 0.0657 | 0.101 | 0.394 | 0.695 | 0.047 | 1.68 | -0.0497 | 0.0331 | 0.133 | 0.0446
CCTTTAG | 0.117 | 0.112 | -0.564 | -0.128 | 0.0941 | -1.19 | 0.216 | -0.00784 | 0.114 | 0.0282
AAAGATT | 0.0736 | 0.0596 | -1.18 | -2.25 | 0.0779 | 0.776 | -0.462 | -0.0193 | -0.181 | -0.199
GAGAAGG | 0.106 | 0.0188 | 0.289 | 0.858 | 0.0721 | 0.69 | 0.0558 | 0.183 | 0.0442 | 0.149
GTGCGCA | -0.00777 | -0.0461 | -0.139 | 0.165 | 0.00116 | -0.163 | 0.0267 | -0.0572 | -0.107 | -0.0536
TAACCCT | -0.424 | -0.109 | -3.2 | -3.13 | -0.00259 | -1.73 | -1.58 | -0.816 | -0.13 | -2.15
TCTCAGA | 0.00609 | -0.105 | 0.11 | -0.131 | -0.0493 | -0.606 | 0.0971 | 0.0921 | -0.0451 | 0.0305
CAGTTAC | -0.0473 | -0.0818 | -0.319 | -1.88 | -0.122 | -0.963 | -1.71 | -0.0892 | -0.0346 | -0.227
TGTGATT | -0.0113 | -0.0872 | 0.0672 | -0.972 | -0.204 | 0.588 | -1.05 | -0.0387 | 0.00291 | -0.14
TTAGACC | 0.104 | 0.0878 | 0.256 | 0.34 | 0.106 | -0.306 | 0.0547 | 0.102 | 0.0959 | 0.135
ACGTTGC | 0.112 | -0.0613 | -0.562 | -0.132 | 0.0611 | -0.907 | 0.115 | 0.0876 | 0.151 | -0.00266
CTGGTTC | 0.022 | 0.0803 | 0.19 | -0.452 | -0.0537 | 0.0534 | 0.156 | -0.05 | -0.0598 | -0.0172
AAAAAGG | 0.0445 | 0.0444 | 0.163 | 0.538 | -0.0565 | -0.376 | 0.199 | 0.094 | 0.0175 | 0.0155
GGATCTG | -0.0272 | 0.0574 | 0.237 | 1.03 | -0.0917 | 1.65 | 0.184 | 0.0498 | 0.0477 | 0.056
CGATCCG | -0.168 | -0.0595 | -0.718 | -0.378 | -0.0432 | -0.945 | 0.104 | -0.115 | -0.0242 | -0.141
AAGGACG | 0.0778 | 0.183 | -0.635 | -0.625 | 0.101 | -1.1 | 0.304 | 0.239 | 0.231 | 0.213
CCGGAAG | 0.145 | 0.049 | -0.563 | -0.318 | 0.204 | -0.541 | 0.234 | 0.0349 | -0.042 | -0.0466
GGGGCAT | 0.0674 | 0.0398 | 0.907 | 2.11 | 0.000192 | 2.34 | 0.178 | 0.0158 | -0.244 | 0.147
TCTGATC | 0.228 | 0.038 | 0.264 | 0.447 | 0.0861 | 0.606 | 0.175 | 0.0566 | 0.143 | 0.163
TGACCTA | 0.127 | -0.0654 | 0.16 | 0.165 | 0.0978 | 0.555 | -0.0924 | -0.0618 | 0.0562 | 0.129
TGAGAGC | 0.165 | 0.089 | 0.0926 | 0.196 | 0.09 | -0.43 | 0.202 | 0.00911 | 0.0192 | 0.0674
TACCACA | -0.116 | 0.0116 | -0.223 | -2.49 | 0.0886 | -0.401 | -0.648 | -0.0267 | 0.0319 | -0.064
CGGGGAG | 0.0442 | 0.000408 | -0.0897 | 0.34 | 0.064 | -0.0978 | 0.184 | -0.0245 | -0.0172 | -0.0592
GACACCG | -0.0618 | -0.0419 | -0.714 | -0.586 | -0.164 | -0.861 | 0.0318 | -0.058 | -0.119 | -0.227
GAATAGG | 0.122 | -0.0214 | 0.307 | 1.08 | 0.0509 | 0.905 | 0.151 | 0.112 | -0.032 | 0.121
CCTCAAG | 0.0408 | -0.135 | -0.892 | -0.705 | -0.2 | -1.26 | 0.149 | -0.00774 | -0.191 | -0.134
GGACCGT | -0.0323 | 0.0814 | 0.645 | 1.55 | -0.091 | 1.89 | 0.118 | -0.0336 | 0.0128 | 0.1
AACATAG | 0.186 | 0.143 | -0.605 | -0.0852 | 0.184 | -0.926 | 0.331 | 0.141 | 0.195 | 0.0462
